The text below walks through data of article PMC5787466, “Accelerated bottom-up drug design platform enables the discovery of novel stearoyl-CoA desaturase 1 inhibitors for cancer therapy” (Oncotarget, 2017).

SMILES strings stand for the structures.

For the first experiment, the target named is SCD1.
Assay: not given
To be noted: known SCD1 inhibitor, value given in the entry name; read-out: Known IC50 (printed in entry name); cited from earlier work.
Regarding `CNC(=O)c1nccnc1NCC(=O)N1CCC(Nc2ccccc2C(F)(F)F)CC1` [Abbott_10g_phenoxyl_100nM], the IC50 is 100 nM.
For `CNC(=O)c1cccc(NC(=O)N2CCC(Oc3ccccc3Cl)CC2)c1` [A939572 37 nM], the IC50 is 37 nM.
`CNC(=O)c1nccnc1NCC(=O)N1CCC(Oc2ccc(O)c(Br)c2)CC1` [Abbott_10b_phenoxyl_58nM]: the IC50 was 58 nM.
Take `CNC(=O)c1nccnc1NCC(=O)N1CCC(Oc2cccc(F)c2F)CC1` [Abbott_10e_phenoxyl_470nM]: the IC50 is 470 nM.

The experiment is the same for the next values; noted with them: known value, no reference given; read-out: Known IC50; cited from earlier work.
For the compound `CNC(=O)c1cccc(NC(=O)N2CCC(Oc3ccccc3Cl)CC2)c1` [A939572, reference compound], the IC50 is 37 nM.
On to `Cc1nc2ccc(NCc3cccc(C(F)(F)F)c3)cc2n(CCNC(=O)CO)c1=O` [CVT-12-012 36nM, reference compound], for which the IC50 was 36 nM.

Staying with this experiment, now noted: published IC50 of known SCD1 inhibitors used as QSAR controls; unit printed only in the ligand names; ref as named in Ligand Name (Uto et al bmcl2009, Uto_EJMC2011, powell_bmcl2011, Xin_bmcl2008); read-out: Known IC50; cited from earlier work.
Consider `NC(=O)c1cnc(N2CCN(C(=O)c3ccccc3C(F)(F)F)CC2)s1` [MerckFrost MF-152, reference compound], for which the IC50 is listed as 100 nM.
Take `Cc1nc2ccc(NCc3cccc(C(F)(F)F)c3)cc2n(CCNC(=O)CO)c1=O` [CV Therapeutics CVT-12-012]: the half-maximal inhibitory concentration (IC50) was 36 nM.
Consider `O=C(NCCC1CC1)c1ccc(N2CCN(C(=O)c3cc(F)ccc3C(F)(F)F)CC2)nn1` [Xenon_LCF369 120 nM], for which the IC50 is 120 nM.
With `CNC(=O)c1nccnc1NCC(=O)N1CCC(Oc2ccc(O)cc2)CC1` [Abbott 10a phenoxyl 6uM], the IC50 was 6000 nM.
With `CNC(=O)c1cccc(NC(=O)N2CCC(Oc3ccccc3)CC2)c1` [Xin_bmcl2008_Abbott 400 nM], the IC50 was 400 nM.
Consider `CNC(=O)c1cccc(NC(=O)N2CCC(Oc3ccccc3Cl)CC2)c1` [A939572, reference compound], for which the IC50 is 37 nM.

The subject of a further experiment is 4 ccRCC cell lines. Description: High-throughput proliferative screen, single point. To be noted: 10μM; proliferative screen in ccRCC cell lines.
Take `O=C(c1ccccc1C(F)(F)F)N1CCC(S(=O)(=O)NCc2ccc(OCc3ccccc3)nc2)CC1` [TC03.47]: the “Single Pt Act (10μM)” value is on record as “No”.
Consider `CNC(=O)c1cnc2cc(CN3CC[C@H](Oc4ccccc4Cl)C3)nn2c1` [SetA.1], for which the “Single Pt Act (10μM)” value is given as “No”.
Still for that read-out and setting: as for `CNC(=O)c1cc(NC(=O)C2CCN(C(=O)c3ccccc3C(F)(F)F)CC2)c2ccccc2n1` [SetB.61], the entry is “No”.
Consider `O=C(c1ccccc1C(F)(F)F)N1CCC([C@@H]2CCCN2C(=O)c2ccc(OCc3ccccc3)nn2)CC1` [TC03.48], for which the “Single Pt Act (10μM)” value was “No”.
As to `CNC(=O)c1cccc(N2CCN(C(=O)c3ccccc3C(F)(F)F)CC2)n1` [SetB.34], the “Single Pt Act (10μM)” value was “No”.
Same read-out and setting: as for `O=C(NCc1cccnc1OCc1ccccc1)C1CCN(C(=O)c2ccccc2C(F)(F)F)CC1` [TC03.31], the entry is “No”; as for `O=C(NCc1ccc(OCc2ccccc2)nc1)[C@H]1CCN(C(=O)c2ccccc2C(F)(F)F)C1` [TC03.46], “No”.
On the same count and under the same terms, the result for `CNC(=O)c1ccc2c(c1)CCCN2C(=O)C1CCN(C(=O)c2ccccc2C(F)(F)F)CC1` [SetB.52] reads “No”.
The same measure, in the same setting: the result for `O=C(c1ccc(OCc2ccccc2)nn1)N1CCC2(CC1)CCN(C(=O)c1ccccc1C(F)(F)F)C2` [TC03.53] reads “No”; that for `CNC(=O)c1ccc(S(=O)(=O)N2CC[C@H](Oc3ccccc3Cl)C2)cn1` [SetA.61], “No”.
Consider `CNC(=O)c1cncc(OC2CCN(C(=O)c3ccccc3C(F)(F)F)CC2)c1` [SetB.70], for which the “Single Pt Act (10μM)” value was “No”.
On to `CNC(=O)c1cc(S(=O)(=O)N2CCC(Oc3ccccc3Cl)CC2)c[nH]1` [SetA.68], for which the “Single Pt Act (10μM)” value was “Y (no rescue)”.
Still for that read-out and setting: the result for `CNC(=O)c1cccc(S(=O)(=O)N2CCCN(C(=O)c3ccccc3C(F)(F)F)CC2)c1` [SetB.49] reads “No”; that for `CNC(=O)c1cccc(OC2CCN(C(=O)c3ccccc3C(F)(F)F)CC2)c1` [SetB.73], “No”; that for `CNC(=O)c1ccc(OCC2CCN(C(=O)c3ccccc3C(F)(F)F)CC2)cc1` [SetB.69], “No”.
Regarding `CNC(=O)COc1ccccc1C(=O)N1CCCN(C(=O)c2ccccc2C(F)(F)F)CC1` [SetB.75], the “Single Pt Act (10μM)” value is on record as “No”.
In the case of `O=C(c1ccccc1C(F)(F)F)N1CCC([C@@H]2CCCN2C(=O)c2ccc(OCc3ccccc3)nc2)CC1` [TC03.10], the “Single Pt Act (10μM)” value is listed as “No”.
Still for that read-out and setting: the result for `CNC(=O)c1ccc(OC2CCN(C(=O)c3ccccc3C(F)(F)F)CC2)cc1` [SetB.66] reads “No”.
